Test results taken from PubChem BioAssay AID1345083 (National Center for Advancing Translational Sciences (NCATS), 2018).
The whole screen tested about 94,000 compounds, of which about 6,200 (6.6%) were called active. The inconclusive results got no clear call from the source; some entries with a clear call stand among them for comparison. Calls come from the whole dose curve; as a rule, active = well fitted inhibition curve with a large enough effect; inconclusive = small, poorly fitted or top-dose-only effect; inactive = flat fitted curve, though single readings scatter. A potency beside an inconclusive call is a rough fit, not a confirmed value.

Assay: Cytotoxic Profiling in HEK 293 Cell Line of Diverse Libraries Using Quantitative High-Throughput Screening; note: nearly all actives have a fitted effect of over 60% in size
Conditions: HEK 293 viability, ATP luminescence (CellTiter-Glo), 48-72 h; series mostly up to 115 µM
Procedure, shortened: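 Viability of HEK 293 cells, plated at 250 cells/well, was judged by cellular ATP after compound treatment for 48 or 72 hr. Luminescence was imaged 10 min after CellTiter-Glo addition at room temperature.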
Potency is the fitted concentration of half-maximal effect; tags give direction and shape of the fitted curve.

Compound	Potency
Cc1ccsc1CN(C)C1CCc2nn(CC3CC3)c(=O)n2CC1 (stereo not drawn)	inconclusive: 39.8 µM [inhibitor, partial curve, poor fit]
Cc1cnc(CCNC(=O)C2(c3ccccc3)CC2)n1Cc1ccccc1	inconclusive: 79.4 µM [inhibitor, partial curve, poor fit]
Cc1cccc(-n2nc(C)c(CCC(=O)N3CCOCC3)c2Oc2ccc(F)cc2F)c1	inconclusive: 50.1 µM [inhibitor, partial curve, poor fit]
COc1ccc(-n2c(CN)n[nH]c2=O)cc1OC	inactive
COC(=O)[C@@H]1Cc2ncn(Cc3ccc(OC)cc3)c2CN1C(=O)COc1ccccc1	inconclusive: 89.1 µM [inhibitor, single point]
COc1nc2c(cc1CNC(=O)C1CCCC1)C(=O)N(CCc1ccccn1)C2	inconclusive: 44.7 µM [inhibitor, partial curve, poor fit]
CCCNc1cc(N2CCC(CCC(=O)NCc3ccccc3)CC2)ncn1	inactive
CNC(=O)N1CCC(C2CCN(S(=O)(=O)c3ccc(C)c(F)c3)C2)CC1 (stereo not drawn)	inconclusive: 79.4 µM [inhibitor, partial curve, poor fit]
O=C1NC2(CCN(Cc3ccccc3)C2)COc2ccccc21 (stereo not drawn)	inconclusive: 63.1 µM [inhibitor, partial curve, poor fit]
CCC(=O)Nc1ccc(OCC(=O)NCc2ccccc2OC(C)CC)cc1 (stereo not drawn)	inconclusive: 35.5 µM [inhibitor, full curve]
CN(C)c1ccc(C(=O)N2CCC(Cc3nc(-c4cnccn4)no3)CC2)cc1	inactive
CN1C[C@@H](NC(=O)c2ccccc2)C[C@H]1c1nc(-c2ccc3c(c2)OCO3)no1	active: 79.4 µM
O=C(c1ccoc1)N1CCCCC1c1nc(CCOCC2CCOCC2)no1 (stereo not drawn)	inconclusive: 63.1 µM [inhibitor, partial curve, poor fit]
CN(CCNC(=O)c1c(-c2ccccc2)cc(=O)n2c1CCC2)C1CCCCC1	inconclusive: 17.8 µM [inhibitor, partial curve, poor fit]
O=C(O)c1ccc2c(c1)CC(=O)N2Cc1cccc(F)c1	inactive
O=C(NCCc1ccc(Cl)cc1)c1nc2sccn2c1-c1ccncc1	inconclusive: 89.1 µM [inhibitor, single point]
CCc1ccc(CN2C[C@@H]3C(=O)N(Cc4ccc5c(c4)OCO5)C(=O)[C@@H]3C2)cc1	inconclusive: 89.1 µM [inhibitor, single point]
COc1ccccc1-c1cnc(Nc2ccc(CN3CCN(C)CC3)cc2)c2c1CCO2	active: 35.5 µM
COc1ccc(Nc2nccc3c(=O)cc(-c4cn[nH]c4)oc23)cc1OC	inconclusive: 112 µM [inhibitor, partial curve, poor fit]
CN(C)C(=O)c1nc(C(C)(C)C)c2cnccn12	inactive
O=C(c1ccc2nnc(CC3CC3)n2c1)N1CCOCC1	inactive

Compound	Potency
Cc1ccc(NC(=O)Cn2c(N(C)Cc3ccccc3)nc(C)cc2=O)c(Cl)c1	inconclusive: 56.2 µM [inhibitor, partial curve, poor fit]
COc1ccc(-c2noc(CC3CCN(C(=O)C4(c5ccc(OC)cc5)CC4)CC3)n2)cc1	inconclusive: 56.2 µM [inhibitor, partial curve, poor fit]
Cc1ccc(C(=O)N2CCC3(CC2)N=C(c2ccc(Cl)cc2)NO3)s1	inconclusive: 50.1 µM [inhibitor, partial curve, poor fit]
O=C(CCCc1ccccc1)N1CCC(Cc2noc(-c3ccccc3)n2)C1 (stereo not drawn)	inconclusive: 89.1 µM [inhibitor, partial curve, poor fit]
C#CCN(C)C(=O)C[C@@H]1CCNC[C@@H]1Cc1cc(COc2ccccc2)on1	inconclusive: 112 µM [inhibitor, partial curve, poor fit]
COc1ccc(CNC(=O)N2CCC(c3noc(-c4cccnc4)n3)C2)cc1 (stereo not drawn)	inactive
O=C(C1CCCC1)N1Cc2ccccc2CC2(CCN(Cc3ccncc3)C2)C1 (stereo not drawn)	inconclusive: 63.1 µM [inhibitor, partial curve, poor fit]
O=[S+]([O-])(c1ccccc1)N1CC(Oc2ccc3c(c2)OCO3)C1	inactive
Cc1ccsc1C(=O)N1CCCC(c2noc(COc3ccccc3F)n2)C1 (stereo not drawn)	inconclusive: 56.2 µM [inhibitor, partial curve, poor fit]
COC(=O)CNC(=O)c1nc(-c2cccc(C(F)(F)F)c2)c2ccccn12	inconclusive: 39.8 µM [inhibitor, full curve]
COc1ccccc1CC(=O)N1CCN(c2cc(-c3ccccc3)[nH]n2)CC1	active: 22.4 µM
Cc1nn(-c2ccccc2)c2c1C(C1CC1)N(C1CN([S+](=O)([O-])c3cccc(C(F)(F)F)c3)C1)C2=O (stereo not drawn)	inactive
O=C(NCc1ccc(F)cc1)c1ccc2oc(-c3cccnc3)nc2c1	inconclusive: 50.1 µM [inhibitor, partial curve, poor fit]
O=C(CC1CCCC1)N1CCOc2ccc(CN3CCc4ccccc4C3)cc2C1	inconclusive: 56.2 µM [inhibitor, partial curve, poor fit]
O=C(c1ccc(C(F)(F)F)cc1)N1CCCC2(C1)C(=NC1CCCCC1)NC(=O)N2c1cccnc1 (stereo not drawn)	inactive
COc1ccc(C(=O)N2CCC3(CC2)NC(=O)N(Cc2ccc(F)cc2)C3=O)cc1	inconclusive: 39.8 µM [inhibitor, full curve, poor fit]
c1ccc(CN2CCC[C@H]2c2nc(-c3ccnc(N4CCOCC4)c3)no2)cc1	active: 89.1 µM
O=C(NCCc1ccc(Cl)cc1)c1nc(-c2ccc(Cl)cc2Cl)c2cnccn12	inconclusive: 25.1 µM [inhibitor, full curve]
COc1cccc(NC(=O)N2CCCC3(C2)Nc2cccnc2NC3=NC2CCCC2)c1 (stereo not drawn)	inconclusive: 39.8 µM [inhibitor, full curve, poor fit]
COc1ccc(CN2CCOC[C@H](OCC(=O)N(C)C)C2)cc1	inactive
COc1cccc(-c2cc3c(=O)n(CCNC(=O)c4ccoc4)ccn3n2)c1	active: 44.7 µM

Compound	Potency
COCCn1cc(CN2CCN(Cc3ccccc3F)CC2)ccc1=O	inconclusive: 89.1 µM [inhibitor, single point]
COc1ccc(CN2CCC3(C2)C(=NC2CCCC2)NC(=O)N3c2cccc(OC)c2)cc1 (stereo not drawn)	inconclusive: 100 µM [inhibitor, single point]
O=C(NCCc1ccccc1)[C@@H]1CCCN1c1nccc(Nc2ccccc2Cl)n1	inconclusive: 28.2 µM [inhibitor, partial curve, poor fit]
Fc1cccc(CN2CCCC3(CCN(c4cnccn4)C3)C2)c1F (stereo not drawn)	inconclusive: 50.1 µM [inhibitor, partial curve, poor fit]
O=C(NC1C[C@H]2CC[C@@H](C1)N2C(=O)NCCc1ccccc1)c1ccc(F)cc1 (stereo partly drawn)	inconclusive: 89.1 µM [inhibitor, single point]
COc1ccccc1-c1cc(C(=O)NCCSC)nn2cccc12	inconclusive: 39.8 µM [inhibitor, partial curve, poor fit]
O=C(c1cccc(Cl)c1)N1CCCC(c2nn(-c3ccccc3)c(=O)[nH]2)C1 (stereo not drawn)	inconclusive: 50.1 µM [inhibitor, partial curve, poor fit]
Cc1nn(-c2ccccc2)c2c1C(C(C)C)N(C1CN(C(=O)c3ccccc3)C1)C2=O (stereo not drawn)	active: 44.7 µM
Cc1ccc(OCc2nc(C3CCN(C(=O)c4ccco4)CC3)no2)cc1	inconclusive: 50.1 µM [inhibitor, partial curve, poor fit]
O=C(c1ccc(-c2cccs2)cc1)N1CCC(N[S+](=O)([O-])c2ccccc2)CC1	active: 44.7 µM
O=C1NCc2ccccc2CC12CCN(Cc1ccccc1C(F)(F)F)C2 (stereo not drawn)	inconclusive: 50.1 µM [inhibitor, partial curve, poor fit]
COCC1CN(C(=O)CCc2ccccc2OC)CC12CCNCC2 (stereo not drawn)	inactive
CC(=O)N(C1CC1)C1CCOC2(CCN(C(=O)c3nccc4ccccc34)CC2)C1 (stereo not drawn)	inactive
CC(=O)NCCNC(=O)[C@@H]1Cc2cn(Cc3c(C)noc3C)c3cccc(c23)[C@H](CC(C)C)N1	inconclusive: 89.1 µM [inhibitor, partial curve, poor fit]
Cn1c(CNC(=O)C2(C)CCCCC(=O)N2)nc2ccccc21 (stereo not drawn)	active: 44.7 µM
COc1ccc(N2CCN(C(=O)c3ccc4c(c3)N(C)C3CCCCN3C4=O)CC2)cc1 (stereo not drawn)	inconclusive: 89.1 µM [inhibitor, single point]
O=C(NCc1ccncc1)C1c2ccccc2C(=O)N(C2CCCC2)C12CCCCC2 (stereo not drawn)	inconclusive: 56.2 µM [inhibitor, partial curve, poor fit]
CCCCc1ncc(-c2c(-c3ccccc3)ncn2CC2(CO)CCC2)[nH]1	inconclusive: 89.1 µM [inhibitor, single point]
Cc1ccc(N2CCN(C(=O)C3CCCN(c4cnn(Cc5ccccc5)c(=O)c4)C3)CC2)cc1 (stereo not drawn)	active: 25.1 µM
O=C(NC1C[C@H]2CC[C@@H](C1)N2C(=O)c1ccc(C(F)(F)F)cc1)c1ccncc1 (stereo partly drawn)	inconclusive: 89.1 µM [inhibitor, partial curve, poor fit]
CCn1cc(C(=O)N2CCCC(CCc3cccc(F)c3)C2)cn1 (stereo not drawn)	inconclusive: 22.4 µM [inhibitor, full curve, poor fit]
